± gives the standard deviation. The full ranking holds about 6,600 sequences; the median of “pre-steady-state target cleavage rate” is about 0.07, and the highest 2% start at about 0.72. The list shows a part of the results, in another mix than the full data.
tested on: MIWI (PIWIL1) piRISC loaded with Kctd7 piRNA (30 nt); assay: pre-steady-state target cleavage rate (min^-1); MIWI and MILI are mouse PIWI proteins and EfPiwi is from a freshwater sponge; tags in brackets are library labels; higher = faster piRNA-guided slicing of the target; conditions: guide: Kctd7 piRNA 5'p-UGUUAAUCUCUCAGAGAAGGUGACAGUGAU; auxiliary factor: 500 nM mouse GTSF1
Summary of the method: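 Cleave-'n-Seq: 1 nM active affinity-purified piRISC with one synthetic guide and 0.1 nM transcribed, DNA-blocked target RNA library were mixed, with or without 500 nM GTSF1 partner protein, in HEPES–potassium acetate buffer at 33 °C for 0–8 or 0–960 min. Uncleaved targets were sequenced and normalised to depth and to weakly complementary targets, three trials were pooled, and k3 was capped at 0.0001 min^-1. The pre-steady-state cleavage rate was fitted […].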

| Sequence | pre-steady-state target cleavage rate |
| --- | --- |
| AUCACUGACACCUUCUCAGAGAGAUUAACA | 0.322 ± 0.026 |
| AUCACACACACCUUCUCUGAGAGAUUAUGA | 0.0722 ± 0.021 |
| AUCACUGUCACCUACUCUGAGAGAUAAACA | 0.318 ± 0.038 |
| UAGUCUGUCACCUUCUCUGAGACUAUAACA | 0.0038 ± 0.0027 |
| UAGUGAGUCACCUUCUCUGAGACAUUUUGA | 0.014 ± 0.0046 |
| AUCAGUGUCACCUUCUCUGAGACAUUAACA | 0.193 ± 0.014 |
| UAGUGACUCACGUACUCUGAGAGAUUAACA | 0.0037 ± 0.003 |
| UAGUGAGUCACCUUCGUCUGAGAGAUUAACA | 0.0209 ± 0.0054 |
| UUCACAGUCACCUUCUCUGAGAGAUAAACA | 0.316 ± 0.034 |
| UAGUGUGUCACCUUGUGUGAGAGAUUAACA | 0.181 ± 0.012 |
| UACACUGUGACCUUCACUGAGAGAUUAACA | 0.301 ± 0.029 |
| UAGUCUGACACCUUCUCUGAGACAUUAACA | 0.041 ± 0.006 |
| UUCACUGACACCUUGUCUGAGAGAUUAACA | 0.18 ± 0.021 |
| UAGUGAGUCACCUUCUCUCAGAGAUUAAGA | 0.0139 ± 0.0058 |
| UAGUGACACACCUUCUCUGAGACUUUAACA | 0.00354 ± 0.0027 |
| UACACUGUCACCUUCUCUGACAGAUUAUGA | 0.0184 ± 0.0069 |
| UAGUGUCACACCUUCUCUGAGAGAUUAACA | 0.529 ± 0.033 |
| UAGUGACUCACCUUCUCUGAGUGAUUAUCA | 0.00976 ± 0.0032 |
| UAGUGACAGUCCUUCUCUGAGAGAUUAAUA | 0.0658 ± 0.0091 |
| UAGAGAGUCACCUUCUCUGAGAGAUUAACA | 0.797 ± 0.035 |
| UUCACUGUCUGGUUCUCUGAGAGAUUAACA | 0.179 ± 0.018 |
| UAGUCUGUUCACCUUCUCUGAGAGAUUAACA | 0.651 ± 0.04 |
| UUCACUGAGUCCUUCUCUGAGAGAUUUUGA | 0.025 ± 0.0082 |
| UAGUGACACACCUUCUCUGAGAGAUUCAACA | 0.417 ± 0.087 |
| UAGUGACACACCUUCUCUGACAGAUUAUCA | 0.0119 ± 0.0057 |

| Sequence | pre-steady-state target cleavage rate |
| --- | --- |
| UAGUGAGUCACCUUCUCUGAGAGAAUUUGA | 0.106 ± 0.033 |
| UAGUGACAGAGCUUCACUGAGAGAUUAACA | 0.00847 ± 0.0032 |
| UACACUCUCACCUUCUCUGAGAGAUUAAGA | 0.0601 ± 0.016 |
| UACACUGUCACCUUCUGAGAGAGAUAUUGA | 0.00634 ± 0.006 |
| UAGUGACUCACCUUCUCUGAGAGAGUUAACA | 0.257 ± 0.034 |
| UAGUGUGUCACCUUCUGUGAGAGAUUAACA | 0.567 ± 0.026 |
| UAGACUGUGUCCUUCUCUGAGAGAUUAAGA | 0.14 ± 0.026 |
| UUCACUGUCACCUUCUCUGACAGAUUAAGA | 0.0101 ± 0.0052 |
| UAGUGACACACGUUCUCUGAGAGAUUAAGA | 0.0472 ± 0.0077 |
| UAGUGUGUCAGCCUUCUCUGAGAGAUUAACA | 0.154 ± 0.016 |
| AUCAGCUGUCACCUUCUCUGAGAGAUUAACA | 0.792 ± 0.043 |
| UUCACACACACCUUCUCUGAGAGAUAUUGA | 0.0849 ± 0.028 |
| UAGUGACAGACCUUAUCUGAGAGAUUAACA | 0.0217 ± 0.0049 |
| AUGACUCUCACCUUCUCUGAGAGAUUAACA | 0.274 ± 0.023 |
| UAGACUGUUCACCUUCUCUGAGAGAUUAACA | 0.771 ± 0.043 |
| UAGACUGUCACCAUCUCUGAGAGAUUAAGA | 0.112 ± 0.018 |
| UAGUGACUCACCUACUCUGAGAGUUUAACA | 0.0954 ± 0.014 |
| AUGACUGUCACCUUCUCUGAGAGAUUAUGA | 0.0921 ± 0.015 |
| UACACUGUCACCUUCACUGAGAGAUUUUGA | 0.302 ± 0.099 |
| UAGUGUGUCACCUUCUCUGAGACUUUAUGA | 0.00826 ± 0.0044 |
| UAGUCUGUCACCUUCUCUGAGAGAUCAACA | 0.243 ± 0.03 |
| UAGUGAGUCACCUACUCAGAGAGAUUAACA | 0.121 ± 0.0098 |
| UAGUCUGUGACCUUCUCUGAGAGAUUUUGA | 0.00421 ± 0.0027 |
| UAGUGUGUGACCUUCUCUGAGAGAUUAUGA | 0.0228 ± 0.0075 |
| UAGUGACAGUGCUUCUCUGAGAGAUUAAA | 0.00418 ± 0.0021 |

| Sequence | pre-steady-state target cleavage rate |
| --- | --- |
| UAGUGAGUCACCUUGACUGAGAGAUUAAGA | 0.00365 ± 0.0035 |
| UAGUCUCUCACCUUGUCUGAGAGAUUAACA | 0.0135 ± 0.0038 |
| UACACUGUCACCUUCUCUAGAGAUUAACA | 0.141 ± 0.018 |
| UAGACUGUCACCUUCUCUGAGAGAUUAAA | 0.141 ± 0.018 |
| UAGUGUGACACCUUCUCUGAGUGAUUAACA | 0.0256 ± 0.0052 |
| UAGACAGACACCUUCUCUGAGAGAUUAACA | 0.572 ± 0.035 |
| UAGUGAGUCACCUUGUCUGACAGAUUAACA | 0.165 ± 0.025 |
| UAGUGACUCACCAUCUGUGAGAGAUUAACA | 0.0661 ± 0.016 |
| UAGUCUGUCACCUUCUCUGUCAGAUUAACA | 0.0105 ± 0.0028 |
| UAGUGAGUCACCUUGUCUGAGACAUUAACA | 0.125 ± 0.031 |
| UUCACUGUCACCUUCUGUGAGAGUUUAACA | 0.212 ± 0.035 |
| UUCACUGUCACCGUUCUCUGAGAGAUUAACA | 0.729 ± 0.032 |
| UUCACUGUCACCUUCUCCGAGAGAUUAACA | 0.323 ± 0.045 |
| UUCACUGUCAGCAUCUCUGAGAGAUUAACA | 0.532 ± 0.042 |
| UAGUGACAGACCUUCACUGAGAGAUUUACA | 0.0132 ± 0.0048 |
| AUCACUGUCACCUACUCUGAGAGAUUAACA | 0.699 ± 0.047 |
| UAGUGACAGUCCUUCACUGAGAGAUUAUCA | 0.0128 ± 0.0044 |
| UAGACUGUCACCUUGUCUGAGAGUUUAACA | 0.27 ± 0.049 |
| AUCACUGUCACCUUCUCUGAGACUUUAUGA | 0.00528 ± 0.0036 |
| UAGUCUGUGACCUUCUCUCAGAGAUUAACA | 0.0779 ± 0.0048 |
| UAGACUGACACCUUCUCUGUGAGAUUAACA | 0.207 ± 0.013 |
| UAGUGUGUCACCUUCUCUGAAGAGAUUAACA | 0.00762 ± 0.0051 |
| UAGACUGUCACGUUCUCUGAGAGAUUAUCA | 0.174 ± 0.032 |
